Data published in US20230220010A1, “BROAD-SPECTRUM ANTIVIRAL PEPTIDES” (priority 2020, published 2023).
Not every detail of the peptide structures is certain; ends, links or a residue may be inferred. Some entries repeat one wording, which the source may state once for all of them. Square brackets hold non-standard residues; d marks the D form. Ends that are not written are not given here. Peptide text beside a SMILES is read from it.

What was measured:
SARS-CoV-2 pseudovirus = type: cell-based
[1] = test system: Lassa pseudovirus (LASVpv)
dengue virus type 2 = conditions: plaque assay
H1N1 influenza virus [2] = type: cell-based
[3] = test system: herpes simplex virus type 1; conditions: plaque assay
human adenovirus 5 = conditions: plaque assay
[4] = test system: Lassa pseudovirus (LASVpv); remark: listed apart in the source
H1N1 influenza virus [5] = experiment: Cryo-electron microscopy of peptide-treated virions

Compound: CC(C)C[C@@H](NC(=O)[C@@H](Cc1c[nH]c2ccccc12)NC(=O)CNC(=O)[C@@H](CCCNC(=N)N)NC(=O)[C@H](N)CCCNC(=N)N)C(=O)N[C@H](CC(C)C)C(=O)N[C@H](CC(C)C)C(=O)N[C@H](CCCNC(=N)N)C(=O)N[C@H](CC(C)C)C(=O)N[C@H](CC(C)C)C(=O)N[C@H](CCCNC(=N)N)C(=O)N[C@H](CC(C)C)C(=O)N[C@H](CC(C)C)C(=O)N[C@H](CC(C)C)C(=O)N[C@H](CCCNC(=N)N)C(=O)N[C@H](CC(C)C)C(=O)N[C@H](CC(C)C)C(=O)N[C@H](Cc1c[nH]c2ccccc12)C(=O)NCC(=O)N[C@H](CCCNC(=N)N)C(=O)N[C@H](CCCNC(=N)N)C(N)=O [D-AHR, rrgwlllrllrlllrllwgrr] (H-[dR][dR]G[dW][dL][dL][dL][dR][dL][dL][dR][dL][dL][dL][dR][dL][dL][dW]G[dR][dR]-NH2)
- virus inhibition of SARS-CoV-2 pseudovirus (SARS-CoV-2 pseudovirus): potent virus inhibition
- antiviral activity against LASVpv [1]: potent virus inhibition

Compound: CC(C)C[C@@H](NC(=O)[C@@H](C)NC(=O)[C@@H](CC(C)C)NC(=O)[C@@H](CCCCN)NC(=O)[C@@H](CC(C)C)NC(=O)[C@@H](CO)NC(=O)[C@@H](Cc1ccccc1)NC(=O)CNC(=O)[C@@H](CCCNC(=N)N)NC(=O)[C@H](N)CCCNC(=N)N)C(=O)N[C@H](CC(C)C)C(=O)N[C@H](CCCCN)C(=O)N[C@H](CC(=O)O)C(=O)NCC(=O)N[C@H](Cc1c[nH]c2ccccc12)C(=O)N[C@H](CC(C)C)C(=O)N[C@H](CC(C)C)C(=O)N[C@H](CC(C)C)C(=O)N[C@H](CCCNC(=N)N)C(=O)N[C@H](CC(C)C)C(=O)NCC(=O)N[C@H](Cc1ccc(O)cc1)C(=O)NCC(=O)N[C@H](CCCNC(=N)N)C(=O)N[C@H](CCCNC(=N)N)C(N)=O [D-IT1b, rrgfslklallkdgwlllrlgygrr] (H-[dR][dR]G[dF][dS][dL][dK][dL][dA][dL][dL][dK][dD]G[dW][dL][dL][dL][dR][dL]G[dY]G[dR][dR]-NH2)
- virus inhibition of SARS-CoV-2 pseudovirus (SARS-CoV-2 pseudovirus): potent virus inhibition
- antiviral activity against LASVpv [1]: potent virus inhibition

Compound: CC(C)C[C@@H](NC(=O)[C@@H](Cc1c[nH]c2ccccc12)NC(=O)CNC(=O)[C@@H](CCCNC(=N)N)NC(=O)[C@H](N)CCCNC(=N)N)C(=O)N[C@H](CC(C)C)C(=O)N[C@H](CC(C)C)C(=O)N[C@H](CCCNC(=N)N)C(=O)N[C@H](CC(C)C)C(=O)N[C@H](CC(C)C)C(=O)N[C@H](CC(C)C)C(=O)N[C@H](Cc1c[nH]c2ccccc12)C(=O)NCC(=O)N[C@H](CCCNC(=N)N)C(=O)N[C@H](CCCNC(=N)N)C(N)=O [D-TL3, rrgwlllrlllwgrr] (H-[dR][dR]G[dW][dL][dL][dL][dR][dL][dL][dL][dW]G[dR][dR]-NH2)
- virus inhibition of SARS-CoV-2 pseudovirus (SARS-CoV-2 pseudovirus): potent virus inhibition
- antiviral activity against LASVpv [1]: potent virus inhibition

Compound: CC(C)C[C@@H](NC(=O)[C@@H](Cc1c[nH]c2ccccc12)NC(=O)[C@@H](CCCNC(=N)N)NC(=O)[C@H](N)CCCNC(=N)N)C(=O)N[C@H](CC(C)C)C(=O)N[C@H](CC(C)C)C(=O)N[C@H](CC(C)C)C(=O)N[C@H](CC(N)=O)C(=O)N[C@H](CC(C)C)C(=O)N[C@H](CC(C)C)C(=O)N[C@H](CC(C)C)C(=O)N[C@H](CC(C)C)C(=O)N[C@H](Cc1c[nH]c2ccccc12)C(=O)N[C@H](CCCNC(=N)N)C(=O)N[C@H](CCCNC(=N)N)C(N)=O [D-TL4NdG, rrwllllnllllwrr] (H-[dR][dR][dW][dL][dL][dL][dL][dN][dL][dL][dL][dL][dW][dR][dR]-NH2)
- virus inhibition of SARS-CoV-2 pseudovirus (SARS-CoV-2 pseudovirus): potent virus inhibition
- antiviral activity against LASVpv [1]: potent virus inhibition

Compound: GIGAVLKGLATGLPAGISWIKQQAQL-NH2 [MelN4, reference compound]
- activity against DENV (dengue virus type 2): little activity
- virus entry / fusion (R18 fluorescence) (H1N1 influenza virus [2]): somewhat blocks virus fusion

Compound: RRGFSLKLALLKDGWLLLRLGYGRR-NH2 [IT1-b]
- activity against DENV (dengue virus type 2): strong inhibitor
- antiviral activity against LASVpv [1]: far more potent than all the segments
- activity against HSV [3]: weak inhibitor
- activity against AdV (human adenovirus 5): weak inhibitor
- maximal inhibition in series with FBS [4]: 100% inhibition is not observed

Compound: RRGFSLKLKLLYRGWALALRLGYGRR-NH2 [IT1-e]
- effect of serum (FBS) concentration on antiviral activity [4]: reduced antiviral activity in the presence of 10% FBS

Compound: RRGFSLKLLLSYRGWALLRLGYGRR-NH2 [IT1-a]
- effect of serum (FBS) concentration on antiviral activity [4]: reduced antiviral activity in the presence of 10% FBS

Compound: RRGWLLLRLLLWGRR-NH2 [TL3, RRGWLLLRLLLWGRR]
- activity against DENV (dengue virus type 2): moderate activity
- activity against HSV [3]: moderate activity
- activity against AdV (human adenovirus 5): weakly active

Compound: RRGWNLALTLTYGRR-NH2 [*NATT*, RRGWNLALTLTYGRR]
- virion morphology at 0.5 μM (H1N1 influenza virus [5]; 0.5 μM, 30 minutes): appear very similar to the untreated sample
- average circularity of virions at 0.5 μM (H1N1 influenza virus [5]; 0.5 μM, ImageJ): 0.873
- virion morphology at 5 μM (H1N1 influenza virus [5]; 5 μM, 30 minutes): virions form clusters
- average circularity of virions at 5 μM (H1N1 influenza virus [5]; 5 μM, ImageJ): 0.805
- virion morphology, 25 μM, 1 minute (H1N1 influenza virus [5]; 25 μM, 1 minute): form small clusters
- virion morphology, 25 μM, 5 minutes (H1N1 influenza virus [5]; 25 μM, 5 minutes): form large aggregates
- virion morphology at 25 μM (H1N1 influenza virus [5]; 25 μM, 30 minutes): structural integrity of virions is completely destroyed

Compound: RRWLLLLNLLLLWRR-NH2 [TL4NdG, RRWLLLLNLLLLWRR]
- activity against DENV (dengue virus type 2): moderate activity
- activity against HSV [3]: moderate activity
- activity against AdV (human adenovirus 5): no activity
- effect of serum (FBS) concentration on antiviral activity [4]: only minimally affected by serum concentration
- maximal inhibition in series with FBS [4]: 100% inhibition is not observed
